# Results as given in ChEMBL document CHEMBL1201862, “PubChem BioAssay data set” (2004).
# Test system: NCI-H322M
# Assay: NCI-60 cell line screen, 48 h
row,Structure (SMILES),GI50
1,COc1ccc2n[se]nc2c1,inactive: 41 µM
2,O=C(CCl)Nc1ccc(C(=O)N/N=C/c2ccc(Cl)cc2)cc1,inactive: 12.6 µM
3,C=CCOC1OC(CS(=O)(=O)O)C(O)C(O)C1O (stereo unspecified),inactive: > 100 µM
4,CC(C)(C)c1cc(C(=O)/C=C/c2c(Cl)cccc2Cl)cc(C(C)(C)C)c1O,inactive: 35.9 µM
5,CCOC(=O)C(=CNC(Cc1c[nH]c2ccccc12)C(=O)OC)C(=O)OCC (stereo unspecified),inactive: > 100 µM
6,CN(C)N1C(=O)SCC(c2ccccc2)(c2ccccc2)C1=O,inactive: > 100 µM
7,O=C(CSCC(=O)N/N=C\c1cccc(Br)c1)N/N=C\c1cccc(Br)c1,inactive: 11.1 µM
8,C/C(=N\NS(=O)(=O)c1ccc(C)cc1)C(CN(C)C)C(c1ccccc1)c1c(O)c2ccccc2oc1=O (stereo unspecified),inactive: > 100 µM
9,CCOC(=O)COc1ccc(OC)c2c1C(=O)CCC2,inactive: > 100 µM
10,C[N+](C)(CCNc1ccc(NCC[N+](C)(C)Cc2ccc([N+](=O)[O-])cc2)c2c1C(=O)c1ccccc1C2=O)Cc1ccc([N+](=O)[O-])cc1,inactive: > 100 µM
11,CN(C)CC1(C)CC/C(=C\c2ccccc2)C1=O (stereo unspecified),inactive: > 100 µM
12,CC(=O)c1ccc(NC(=O)/C(CC(=O)/C=C/c2ccccc2)=N/NC(N)=S)cc1,inactive: > 100 µM
13,CC(=O)OC12c3ccccc3-c3ccccc3C1C(C(=O)O)C2(Cl)C(=O)O (stereo unspecified),inactive: > 10 µM
14,COc1cc(C2SCCCCCCCCCCSC(c3ccc(O)c(OC)c3)SCCCCCCCCCCS2)ccc1O (stereo unspecified),inactive: > 100 µM
15,C=CC[P@@]1(=O)O[C@H](c2ccccc2)C(C)N1C(C)C (stereo partly specified),inactive: > 100 µM
16,CC(=O)OC1=C(CC(C)(C)C)C(=O)c2ccccc2C1=O,inactive: 92.3 µM
17,CCN1C=C/C(=C\C=C\c2cc[n+](CC)c3ccccc23)c2ccccc21,inactive: 6.03 µM
18,Cc1nn(-c2ccccc2)c2c1CC(=O)Nc1ccccc1-2,inactive: 2.24 µM
19,O=C(Nc1ccc2ccccc2c1)Nn1cnnc1,inactive: > 100 µM
20,C/C=C(\C)C(=O)N1c2ccccc2CC1c1c(C)[nH]c2ccccc12 (stereo unspecified),inactive: 66.2 µM
21,Clc1ccc(-c2nn3c(CCCCCCCCc4nnc5sc(-c6ccc(Cl)cc6)nn45)nnc3s2)cc1,inactive: 8.57 µM
22,O=C(Nc1ccc(Cl)cc1Cl)C1C(=O)OC2(CCCCC2)OC1=O,inactive: 10.7 µM
23,COC(=O)C1=C(C(=O)OC)N(c2ccc(OC)cc2[N+](=O)[O-])C(c2ccc(C)cc2)=CC1c1ccc(OC)cc1OC (stereo unspecified),inactive: 27.2 µM
24,Nc1nc2c(c(=O)[nH]1)C(c1ccccc1)CC(=O)N2 (stereo unspecified),inactive: > 100 µM

row,Structure (SMILES),GI50
1,Nc1ncnc2c1ccn2C1OC2COP(=O)(O)OC2C1O (stereo unspecified),active: 0.533 µM
2,COc1cc2c(cc1OC)C1C=NC(C2)c2cc(OC)c(OC)cc21 (stereo unspecified),inactive: > 100 µM
3,COc1cc(Nc2nc3c(N)cc(C(F)(F)F)cc3nc2-c2ccccc2)cc(OC)c1OC,inactive: 32.9 µM
4,Cc1c2nc3ccccc3sc-2cc(=O)c1C,inactive: > 100 µM
5,CC1(C)OC(=O)C(=Cc2ccc([N+](=O)[O-])s2)C(=O)O1,inactive: 43.3 µM
6,Cc1cccc(NC(=O)C(=O)C(C(=O)c2ccccc2F)C2OC(=O)c3ccccc32)c1Cl (stereo unspecified),inactive: 19.7 µM
7,CCOC(CI)O[C@@H]1C=C[C@H](OC(C)=O)C1 (stereo partly specified),inactive: > 100 µM
8,Clc1cc(Cc2cc(Cl)c(Cl)c3c2OCOC3)c2c(c1Cl)COCO2,inactive: 87.7 µM
9,CC(=O)C1=C(C)NC(=C(C#N)C#N)C(C#N)=C1,inactive: > 100 µM
10,COC(=O)C1CC(C=[N+](C)C)=C(SC)N1C(=O)OCc1ccccc1 (stereo unspecified),inactive: > 100 µM
11,O=C(OCCOC(=O)c1ccc2c(c1)C1(SCCS1)c1ccccc1-2)c1ccc2c(c1)C1(SCCS1)c1ccccc1-2,inactive: > 100 µM
12,[N-]=[N+]=NC1(Cc2ccccc2)C(=O)c2cccc3c2N(CCC3)C1=O (stereo unspecified),inactive: > 100 µM
13,CCc1ccccc1-n1c2nc(=O)n(C)c(=O)c-2nc2ccccc21,inactive: 12 µM
14,CCOC(=O)c1cc(Cl)ccc1OC(N)=O,inactive: > 100 µM
15,CC(=O)Oc1cccc2c1C(=O)c1c(OC(C)=O)cc(C)cc1C2=O,inactive: > 100 µM
16,COc1ccc(CC(N)c2ccc(OC)cc2)cc1 (stereo unspecified),inactive: > 100 µM
17,CC(C)(C)c1ccc(-c2nnc(-c3cc(C#N)cc(-c4nnc(-c5ccc(C(C)(C)C)cc5)o4)c3)o2)cc1,inactive: > 100 µM
18,COc1ccc(Br)c(/C=N\c2cccc3cc(OC)c(OC)cc23)c1,inactive: 75 µM
19,C=C1CC/C=C(\C)C(=O)C[C@@H]2[C@@H]1CC2(C)C [BUDDLEDIN C],inactive: 21.2 µM
20,CN(C(=O)c1ccco1)C(=S)N1CCN(c2ccccn2)CC1,inactive: > 100 µM
21,CCCCC(CC)C(=O)Oc1ccc(C(=O)c2ccccc2)c(O)c1 (stereo unspecified),inactive: 64.4 µM
22,CCOc1ncn(-c2ccc(NC(=S)Nc3cnccn3)cc2)n1,inactive: > 10 µM
23,Cc1cc2c(=O)cc(-c3ccncc3)oc2c(C(N)=O)c1C,inactive: > 100 µM
24,CN(C)CC1CN=C(N)O1 (stereo unspecified),inactive: > 100 µM

row,Structure (SMILES),GI50
1,c1nncn1C12C3C4C5C3C1C5C42 (stereo unspecified),inactive: > 100 µM
2,COC(=O)[C@@H]1Cc2ccc(OC)c(c2)OCCC(=O)N1,inactive: > 100 µM
3,O=C1c2c(Br)sc(Br)c2C(=O)C1(O)O,inactive: > 100 µM
4,CN(/N=C/c1cccc2cccnc12)c1ccc(Cl)cc1[N+](=O)[O-],inactive: > 100 µM
5,Cc1nc(Nc2ccccc2)sc1C(=O)NNc1ccc([N+](=O)[O-])cc1[N+](=O)[O-],inactive: 53.7 µM
6,CC(C)(C)[C@H]1CO[C@]2(c3ccccc3)[C@@H]3C[C@@H]3C(=O)N12,inactive: > 100 µM
7,Cc1ccc(S(=O)(=O)NCC2CCCCC2=O)cc1 (stereo unspecified),inactive: > 100 µM
8,O=c1ncc(F)cn1C1OC(CO)C(O)C1O (stereo unspecified),inactive: > 40.2 µM
9,COC(=O)C1Cc2cc3c(cc2C1)CCC3,inactive: 64.9 µM
10,[N-]=[N+]=NC1C(O)C(CO)OC1n1cnc2c(N)ncnc21 (stereo unspecified),inactive: 90.4 µM
11,CN(C)Cc1cc(C(=O)/C=C/c2ccc(/C=C/C(=O)c3cc(CN(C)C)c(O)c(CN(C)C)c3)cc2)cc(CN(C)C)c1O,inactive: 39.4 µM
12,O=C1c2sccc2C(=O)c2c(CO)csc21,inactive: 6.44 µM
13,Cc1ccc2nc(CC(=O)c3ccc4ccccc4c3)c(O)nc2c1,inactive: > 100 µM
14,CC1(C)CC(C)(C)CC(O)(C2(O)CC(C)(C)CC(C)(C)C2)C1,inactive: > 100 µM
15,NC1CC(=O)c2sc(I)cc21 (stereo unspecified),inactive: > 100 µM
16,c1ncn(C23C4C5C6C4C2C6C53)n1 (stereo unspecified),inactive: > 100 µM
17,COc1ccnc2c1C(=O)c1nc3ccccc3c3ccnc-2c13,active: 0.0759 µM
18,O=C(Cc1ccccc1)NN1C(=O)/C(=C\c2cccc([N+](=O)[O-])c2)S/C1=N\c1ccccc1,inactive: > 100 µM
19,CC1=C2c3ccccc3N(S(=O)(=O)c3ccccc3)[C@H]2[C@H](C(=O)N2C3CC4CC[C@@]3(CS2(=O)=O)C4(C)C)CC1 (stereo partly specified),inactive: 68.1 µM
20,O=c1cc(/C=C/c2ccccc2)c2ccc(O/C(=C\c3ccccc3)c3nc4ccccc4c(=O)o3)cc2o1,inactive: 26.9 µM
21,C1CSC2=C(S1)SC1=C(S2)SC(=C2SC3=C(SC4=C(SCCS4)S3)S2)S1,inactive: > 100 µM
22,O=C1COc2cccnc2N1CCCCO,inactive: > 100 µM
23,CCN(CC)CCCn1cnc2ncccc2c1=O,inactive: > 100 µM
24,Cn1c2ccccc2c2c(=O)[nH]c(=O)[nH]c21,inactive: > 100 µM

row,Structure (SMILES),GI50
1,CN(C)CCNC(=O)Cn1ccc(=O)c2ccc([N+](=O)[O-])cc21,inactive: > 100 µM
2,[O-][S+]1CC[S+]([O-])CC[S+]([O-])CC1 (stereo unspecified),inactive: > 100 µM
3,C=C1C(=O)O[C@H]2[C@H](OC(C)=O)[C@@H](C)CCC/C(C)=C/CC[C@@]3(C)O[C@@H]3C[C@@H]12,inactive: 7.45 µM
4,CN(C)CCn1c(=O)c2ccc3c4c(nn3CCN(C)C)c3cc(N)ccc3n(c1=O)c24,active: < 0.01 µM
5,O=C1Nc2ccccc2/C1=C/c1ccccc1,inactive: 15.9 µM
6,O=S1(=O)C[C@@H](NCc2ccccc2)[C@H](NCc2ccccc2)C1,inactive: > 100 µM
7,CC1CCC2C(C)(C)CC3(C)CCC1C23O (stereo unspecified),inactive: 20.7 µM
8,O=C(O)C1=C(C(=O)Nc2ccc(NC(=O)C3=C(C(=O)O)C4C=CC3C4)cc2)C2C=CC1C2,inactive: > 100 µM
9,CCOC(=O)c1c2ccccc2n2c(N)c(C(N)=O)nnc12,inactive: 62.4 µM
10,CCOC(=O)c1sc(N)nc1N1CCCC1,inactive: > 100 µM
11,C=CC1(CBr)CCC(C(C)(C)Br)O1 (stereo unspecified),inactive: 18.6 µM
12,COC(=O)C1=C(OC)c2cc3c(cc2C(c2cc(OC)c(OC)c(OC)c2)C1C(=O)OC)OCO3 (stereo unspecified),inactive: > 100 µM
13,CCOC(=O)c1ccc(-n2nnc(C(N)=O)c2O)cc1,inactive: > 100 µM
14,NC(=S)NS(=O)(=O)c1ccc(Cl)cc1Cl,inactive: > 100 µM
15,O=C(O)CC1OCC=C2CN3CCC45c6ccccc6NC4C1C2CC35 (stereo unspecified),inactive: > 100 µM
16,C=CCc1cc(OC)c2c(c1)C(O)CC(c1ccc(OC)c(OC)c1)O2 (stereo unspecified),inactive: > 100 µM
17,COc1cc(C)c2c(c1C=O)Oc1c(c(C)c(O)c3c1C(O)OC3=O)OC2=O (stereo unspecified) [STICTIC ACID],inactive: 56.5 µM
18,O=c1c2cc3ccccc3n2c(=O)c2cc3ccccc3n12,inactive: > 100 µM
19,CN(C)c1ccc(/C=C(\NC(=O)c2ccccc2)c2nc3ccccc3c(=O)o2)cc1,inactive: > 100 µM
20,COc1ccc(C(=O)NCCN(C)C)c2nc3ccccc3cc12,inactive: 1.63 µM
21,COc1cc2c(cc1OC)C(=O)/C(=C/c1cc(Cl)cc(Cl)c1)C2,inactive: 24.6 µM
22,COC(=O)C(C(=O)C(=O)Nc1ccc(C)cc1)c1nc2ccc([N+](=O)[O-])cc2nc1O (stereo unspecified),inactive: > 100 µM
23,Cc1cc(N(CCC#N)CCC#N)ccc1/C=C1N=C(/C=C\c2ccccc2)N(c2ccc(C(=O)O)cc2)C\1=O,inactive: > 100 µM
24,CCOC(=O)C1(CC(=O)O)CCCC1=O (stereo unspecified),inactive: > 100 µM

#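 Step 1: Grow cells in 96-well plates. Step 2: Expose to compound for 48 hours at 5 concentrations. Step 3: Interpolate endpoints linearly; if unreached, use highest concentration. The concentration for 50% growth inhibition is given as GI50.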 The source made the active and inactive calls. Rule as the data show it: active = GI50 up to about 1.1 µM and inactive = higher.
